In all, about 310,000 compounds went through this assay and about 2,200 (0.71%) showed an effect of 50% or more. The effect is printed as a negative number. The list shows a part of the results.
Molecular target: human ether-à-go-go-related gene (hERG) potassium channel (human, UniProt Q12809)
Assay: primary screen, population patch clamp on CHO cells stably expressing hERG

Sequence of human ether-à-go-go-related gene (hERG) potassium channel (Q12809 whole entry, looked up): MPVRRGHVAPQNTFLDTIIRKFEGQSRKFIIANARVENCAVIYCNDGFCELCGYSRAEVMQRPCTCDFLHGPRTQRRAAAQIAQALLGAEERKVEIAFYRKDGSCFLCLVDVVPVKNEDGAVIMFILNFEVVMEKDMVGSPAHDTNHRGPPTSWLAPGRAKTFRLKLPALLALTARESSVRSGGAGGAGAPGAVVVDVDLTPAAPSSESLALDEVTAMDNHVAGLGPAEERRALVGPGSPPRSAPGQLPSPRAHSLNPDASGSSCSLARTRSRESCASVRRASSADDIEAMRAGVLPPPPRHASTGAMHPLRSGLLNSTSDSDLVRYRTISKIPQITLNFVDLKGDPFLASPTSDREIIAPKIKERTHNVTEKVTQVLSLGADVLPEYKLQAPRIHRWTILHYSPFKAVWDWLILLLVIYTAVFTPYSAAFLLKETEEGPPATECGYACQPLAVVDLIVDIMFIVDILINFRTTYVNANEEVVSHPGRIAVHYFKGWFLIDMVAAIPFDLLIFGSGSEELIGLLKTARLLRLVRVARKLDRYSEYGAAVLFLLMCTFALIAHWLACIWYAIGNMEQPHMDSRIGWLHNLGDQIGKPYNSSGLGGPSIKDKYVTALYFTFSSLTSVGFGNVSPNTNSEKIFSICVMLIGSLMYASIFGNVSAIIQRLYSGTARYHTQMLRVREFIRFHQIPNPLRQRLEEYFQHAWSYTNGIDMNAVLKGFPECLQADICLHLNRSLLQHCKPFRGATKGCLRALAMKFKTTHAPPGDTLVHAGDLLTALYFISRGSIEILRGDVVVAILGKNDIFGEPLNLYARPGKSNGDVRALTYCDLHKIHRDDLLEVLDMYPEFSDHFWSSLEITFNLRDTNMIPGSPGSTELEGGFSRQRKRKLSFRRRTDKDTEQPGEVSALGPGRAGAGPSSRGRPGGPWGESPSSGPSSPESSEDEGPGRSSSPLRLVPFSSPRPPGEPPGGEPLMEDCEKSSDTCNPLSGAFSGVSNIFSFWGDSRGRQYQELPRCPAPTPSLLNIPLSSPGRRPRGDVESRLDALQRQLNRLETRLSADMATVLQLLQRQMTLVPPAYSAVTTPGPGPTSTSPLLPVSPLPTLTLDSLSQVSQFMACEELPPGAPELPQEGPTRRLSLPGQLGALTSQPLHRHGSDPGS

Structure (SMILES)	hERG current change (%, negative = inhibition) at 1uM
Clc1ccc2[nH]c3c(c2c1)CCc1cn[nH]c1-3	1.26%
Cl.O=C(OCCN1CCCCC1)c1c[nH]c2ccccc12	-4.63%
CCn1c(O)c(N=NC(=O)Cn2ccc(C(F)(F)F)n2)c2ccccc21	1.07%
Cc1ncc(CN2CCC(N3CCC(C(=O)N4CCCC4)CC3)CC2)s1	8.78%
CCOc1ccc(NC(=O)C2CC(=O)N(C)C(=Nc3ccc4c(c3)OCO4)S2)cc1 (stereo not shown)	14.6%
CN1C(=O)NC(c2ccc(C(F)(F)F)cc2)C2=C1CC(C)(C)CC2=O (stereo not shown)	2.15%
c1ccc(Cc2nc3ccccc3o2)cc1	15%
O=C(Nc1ccc(Br)cc1)Nn1cnnc1	15.1%
O=C(O)c1ccccc1NC(=O)C1CCN(S(=O)(=O)c2cccc3nsnc23)CC1	14.1%
COc1ccc(/C=N/NC(=O)c2ccc(COCC(F)(F)C(F)F)cc2)cc1	8.85%
Nc1n[nH]c2cc(=O)n(-c3cccc(C(F)(F)F)c3)nc12	12.3%
O=C(COc1ccccc1Cl)NC(=S)N1CCc2ccccc21	-9.6%
CCOC(=O)C(=CNc1ccc2c(c1)CCN2C(C)=O)C(=O)OCC	12.1%
Cc1ccc(C(C(=O)NC2CCCC2)N(Cc2cccnc2)C(=O)c2snc(C(N)=O)c2N)o1 (stereo not shown)	12.3%
CCOc1ccc(NC(=S)NCCCN2CCN(c3ccc(OC)cc3)CC2)cc1	-29.3%
COc1ccc(CCN(Cc2cc3ccc(C)cc3n3nnnc23)C(C)=O)cc1OC	-12.5%
Cc1ccc(NC(=O)c2ccccc2OCC(=O)Nc2cccc(Cl)c2C)nc1	15.1%
CC(C)C(C(=O)NC1=NCCS1)c1ccc(Cl)cc1 (stereo not shown)	-26.6%
C/C(=N/NC(=O)c1sc(=S)n(C)c1C)c1ccccc1	5.59%
Cn1c(=O)cc(SCC(=O)N2CCN(c3ccccc3)CC2)c2ccccc21	5.48%
C/C(=N/NC(=O)CNC(=O)c1ccccc1)c1ccc(C)cc1	10.3%
CN(C)S(=O)(=O)c1ccc(C(=O)NCCC(=O)N2CCCC2)cc1	10.5%
COC(=O)c1c(N)n(-c2ccc(NC(C)=O)cc2)c2nc3ccccc3nc12	9.43%

Structure (SMILES)	hERG current change (%, negative = inhibition) at 1uM
O=C(NNc1nc2ccccc2o1)c1ccccc1	-14.5%
COc1ccc(OC)c(/C=C(\NC(=O)c2ccccc2)C(=O)N/N=C/c2ccc(C)s2)c1	7.76%
c1ccc(Nc2nc(-c3ccccn3)cs2)cc1	4.92%
Cc1ccc(CNC(=O)Nc2cccs2)cc1	2.16%
Oc1ccccc1OCc1nc2ccccc2s1	-4.59%
O=C(CSc1nc(-c2ccccc2)cc(C(F)(F)F)n1)NCCN1CCOCC1	-1.83%
COc1ccc(NS(=O)(=O)c2ccc(N/N=C(\C)c3ccncc3)c([N+](=O)[O-])c2)cc1	13.5%
COc1ccc(CNC(=O)CN2C(=O)NC(C)(c3ccc(C(C)(C)C)cc3)C2=O)cc1 (stereo not shown)	10.7%
CCOC(=O)c1c(NC(=O)COC(=O)c2nccnc2N)sc2c1CCC2	10.7%
COc1ccc(CCNC(=O)CN2C(=O)c3ccccc3S2(=O)=O)cc1	6.12%
Cc1cc(O)c(C2(O)C(=O)Nc3ccccc32)cc1C (stereo not shown)	3.44%
CCCC(=O)c1c[nH]c(C(=O)NCCc2ccccn2)c1	25.3%
C#CC(CC)(CC)NC(=O)NC1CCCCC1	8.12%
CCCNC(=S)N1CCC(Cc2ccccc2)CC1	19.4%
O=C1CCCCN1CCCC(=O)N1CCCC(Nc2ccc(F)cc2)C1 (stereo not shown)	15.5%
O=C(NC(=S)Nc1cccc([N+](=O)[O-])c1)c1ccco1	10.1%
Cc1ccc(C(=O)NCCNS(=O)(=O)c2ccccc2)cc1	-1.17%
COc1ccccc1NC(=O)C(C)OC(=O)c1nc2nc(C)cc(C)n2n1 (stereo not shown)	18%
Cc1cc(C)cc(OCC(=O)Nc2ccc3c4c(cccc24)CC3)c1	6.86%
CCC(C)n1c(C)cc(C(N)=O)c1C (stereo not shown)	7.39%
COc1ccc(Cl)cc1C(=O)Nc1cccnc1	15.2%
CNC(=O)CSc1nc2sccc2c(=O)n1-c1ccccc1	13.3%
O=C(CNC(=O)c1ccccc1)NCC(=O)OCc1ccc(Cl)cc1	4.64%

Structure (SMILES)	hERG current change (%, negative = inhibition) at 1uM
CC1(C)Cc2c(C#N)c(OCC(=O)c3ccccc3)nc(-c3ccoc3)c2CO1	6.54%
Cc1c(C(=O)c2ccccc2)oc2ccc3ccccc3c12	10.4%
O=C1N(Cc2cccc(Cl)c2)C[C@@H]2C[C@@H](c3c[nH]c4ccccc34)N3CCC[C@@]123	-49.5%
Cc1ccc(OCCCCNC2CCCCC2)c(C)c1.O=C(O)C(=O)O	-2.23%
Brc1cc2c(cc1Br)OCCOCCOCCO2	5.78%
CCNC(=S)N1CCc2ccccc2C1	9.59%
CCOc1ccc(N(CC(=O)Nc2cccc(Br)c2)S(C)(=O)=O)cc1	12.8%
COc1ccc(OC)c(C(c2nnnn2C2CCCC2)N2CCN(c3ccccc3)CC2)c1.Cl (stereo not shown)	-2.96%
CC(C)C(NC(=O)c1ccc(Br)cc1)C(=O)NC1=NCCS1 (stereo not shown)	2.57%
CCc1ccc(/C=N/NC(=O)Cc2cccn2C)cc1	8.8%
NC(=O)c1oc2ccccc2c1NC(=O)c1ccccc1	8.45%
COc1ccc(Oc2ccc(C(F)(F)F)cc2NC(=O)CC(CC(=O)O)c2ccccc2)cc1 (stereo not shown)	5.26%
COC(=O)CC(NS(=O)(=O)c1cccs1)c1ccc2c(c1)OCO2 (stereo not shown)	9.58%
Cc1ccnc(NC(=O)c2ccccc2[N+](=O)[O-])c1	23.7%
COc1cc(C)nc(N2CCCC(C(=O)NC3CCC(C)CC3)C2)n1 (stereo not shown)	9.45%
Br.Cc1nc(SC2C=CS(=O)(=O)C2)n[nH]1 (stereo not shown)	13.4%
O=C(NCCc1ccc(Cl)cc1)C1CCCN(S(=O)(=O)c2cnc[nH]2)C1 (stereo not shown)	6.95%
Cc1cnc(C)c(N2CCN(C(=O)C3CCC(=O)N(CCc4cccc(F)c4)C3)CC2)n1 (stereo not shown)	-10.4%
Cc1oc(-c2ccccc2F)nc1CN1CCC(C(=O)NCc2ccco2)CC1	-9.53%
COc1cccc(C(=O)NNC(=O)c2cccnc2)c1	14.1%
S=C(NCCCN1CCOCC1)N1CCN(c2nc(-c3ccccc3)cs2)CC1	10%
COc1cccc(C(=O)OCCN2C(=O)c3ccccc3C2=O)c1OC	13.2%
COCCn1c(SC(C)C(=O)Nc2ccc3c(c2)OCCO3)nc2ccccc2c1=O (stereo not shown)	2.18%

Structure (SMILES)	hERG current change (%, negative = inhibition) at 1uM
COc1ccc(CNCC(=O)Nc2cc(OC)cc(OC)c2)cc1.O=C(O)C(=O)O	14.4%
COc1ccc(C(CC(=O)O)NC(=O)COc2ccc(C)cc2)cc1OC (stereo not shown)	13.3%
Cn1c(C(=O)O)c(CC(=O)N2CCN(Cc3ccccc3)CC2)c2ccccc21	10.4%
O=C(O)/C=C/C(=O)Nc1ccccc1SC(F)(F)F	6.11%
CSc1n[nH]c(N)c1S(=O)(=O)c1ccc(Cl)cc1	15.1%
O=C(Cc1ccc(Cl)cc1)NCCc1c[nH]c2ccccc12	8.06%
O=C(OC1CCOC1=O)c1ccc(NS(=O)(=O)c2cccs2)cc1 (stereo not shown)	19%
COc1cccc(SCc2noc(C(=O)NCCN(C)C)c2C(=O)NCCN(C)C)c1	10.6%
Cc1ccc(-n2c(Cc3cccs3)nnc2SCC(=O)Nc2ccc(S(N)(=O)=O)cc2)cc1	9.49%
O=C(COc1ccc(S(=O)(=O)N2CCCC2)cc1)Nc1ccc(F)cc1	4.32%
CCc1ccc(OCC(=O)N(Cc2ccccc2)C2CCS(=O)(=O)C2)cc1 (stereo not shown)	9.81%
Cc1nn(-c2ccccc2)c(C)c1NC(=O)CCl	4.95%
CC1CN(C(=O)c2ccc(C(=O)c3ccccc3)cc2)CC(C)O1 (stereo not shown)	11.8%
COC(=O)[C@H](Cc1ccccc1)NC(=O)NCc1ccc(C)cc1	1.58%
O=C(NCCCO)Nc1ccc2nc(-c3ccco3)c(-c3ccco3)nc2c1	17.2%
CC(C)c1ccccc1NC(=O)COC(=O)/C=C/c1cccc([N+](=O)[O-])c1	7.31%
ClC1(Cl)CC1CSc1nnc(-c2ccncc2)o1 (stereo not shown)	6.7%
O=C(N/N=C/c1cc([N+](=O)[O-])ccc1O)c1ccc(COc2ccc3c(c2)CCC3)o1	17.9%
Cc1nc2cc(C(F)(F)F)ccc2n1C1CCN(C(=O)N2CCOCC2)CC1	-17.4%
O=C(Nc1cccc(S(=O)(=O)N2CCCC2)c1)c1ccc2c(=O)n3c(nc2c1)CCCCC3	-30.1%
Fc1ccc(-c2onc3ccc(C4OCCO4)cc23)cc1	8.17%
CCn1c(SCc2ccc(Cl)cc2Cl)nc2nc3c(cc2c1=O)CCCC3	3.75%
